Laboratory results from the supplement of paper PMC12217912.
This is one part of the list. Sequences were assembled here from the parent chain. Values near 0.05 are background.

B1: TEV protease; numbered along this chain (parent)
chain: MGESLFKGPRDYNPISSSICHLTNESDGHTTSLYGIGFGPFIITNKHLFRRNNGTLVVQSLHGVFKVKDTTTLQQHLVDGRDMIIIRMPKDFPPFPQKLKFREPQREERICLVTTNFQTKSMSSMVSDTSCTFPSGDGIFWKHWIQTKDGQCGSPLVSTRDGFIVGIHSASNFTNTNNYFTSVPKNFMELLTNQEAQQWVSGWRLNADSVLWGGHKVFMVKPEEPFQPVKEATQL

Variants of: B1
Assay: raw area under fraction-flipped curve 0-4 h after induction (AUC4h, not background-subtracted), DNA-recorder readout of cleavage of the substrate (dimensionless); higher = more cleavage of the substrate by the protease variant
Conditions: temperature: 34 °C; time window: 0-4 h after rhamnose induction
Protocol: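 In vivo DNA recorder in E. coli TOP10(DE3) ΔrhaA at 34 °C. Each TEVp single-site mutant (parent TEVp 0) is paired with a single-site variant of the 7-mer TEVs (canonical ENLYFQ|S). The substrate sits between flexible linkers in a Bxb1-sfGFP-TEVs-SsrA fusion, so cleavage stabilises Bxb1 and speeds flipping of a recombination array, read by NGS. The value is the raw area under the fraction-flipped curve over 0-4 h after rhamnose induction (AUC4h), with ≥20 reads per time point. It is not background-subtracted; inactive controls average about 0.047.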
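Further: Bxb1 expression induced with 0.2% (w/v) L-rhamnose at OD600 near 0.5, cultures sampled hourly, flipped fraction per protease–substrate barcode pair counted by paired-end Illumina sequencing.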

| Variant | area with substrate EALYFQS | area with substrate EELYFQS | area with substrate EGLYFQS | area with substrate EILYFQS | area with substrate ELLYFQS | area with substrate EMLYFQS | area with substrate EQLYFQS | area with substrate ERLYFQS | area with substrate EWLYFQS | area with substrate EKLYFQS | area with substrate ESLYFQS | area with substrate ETLYFQS | area with substrate EVLYFQS | area with substrate EYLYFQS | area with substrate ECLYFQS | area with substrate EFLYFQS | area with substrate EPLYFQS | area with substrate EDLYFQS | area with substrate EHLYFQS |
| --- | --- | --- | --- | --- | --- | --- | --- | --- | --- | --- | --- | --- | --- | --- | --- | --- | --- | --- | --- |
| G138S | 0.128 | 0.0871 | 0.078 | 0.0906 | 0.0795 | 0.118 | 0.116 | 0.103 | 0.0782 |  |  |  |  |  |  |  |  |  |  |
| G138K | 0.102 | 0.109 |  | 0.0833 |  |  | 0.0631 |  |  | 0.0284 | 0.0861 | 0.0846 | 0.0792 | 0.107 |  |  |  |  |  |
| T119V | 0.138 |  |  | 0.0786 |  | 0.0508 |  | 0.111 | 0.12 | 0.125 | 0.106 |  |  |  | 0.0779 | 0.0677 | 0.115 |  |  |
| K100C | 0.115 | 0.135 | 0.0945 | 0.119 | 0.0977 | 0.132 | 0.164 |  | 0.0825 | 0.112 | 0.0893 |  | 0.0798 |  |  | 0.136 | 0.0882 | 0.108 | 0.127 |
| S124H | 0.0994 | 0.122 | 0.0992 | 0.105 |  |  |  |  |  | 0.116 | 0.116 |  |  | 0.124 |  | 0.13 | 0.121 | 0.159 | 0.133 |
| T114E | 0.0903 |  |  | 0.0996 | 0.0682 |  |  | 0.0825 | 0.0749 | 0.0945 | 0.0864 | 0.0968 | 0.0819 |  | 0.09 |  |  |  |  |
| F133H | 0.143 | 0.135 |  | 0.0992 | 0.102 |  |  |  | 0.0958 | 0.125 | 0.112 | 0.106 | 0.112 |  |  | 0.0838 |  | 0.118 |  |
| F133R | 0.105 | 0.151 |  | 0.097 |  | 0.13 | 0.163 | 0.123 | 0.146 | 0.198 | 0.124 | 0.0836 | 0.165 |  |  |  | 0.157 | 0.147 | 0.148 |
| F133A | 0.124 |  |  | 0.126 | 0.0965 |  |  | 0.11 | 0.0922 | 0.0687 | 0.0693 |  | 0.107 |  | 0.11 | 0.091 | 0.104 |  |  |
| C131V | 0.139 | 0.162 |  |  |  |  |  |  |  |  | 0.111 |  | 0.0997 |  |  |  |  |  |  |
| F140T | 0.0609 |  |  |  |  | 0.0683 | 0.0514 | 0.0848 |  | 0.0597 | 0.0618 |  | 0.0609 |  | 0.0571 | 0.0537 | 0.0614 |  |  |
| P89M | 0.0924 |  | 0.0634 | 0.0786 | 0.0762 | 0.0859 |  |  |  | 0.0957 | 0.0976 | 0.0796 | 0.0786 |  | 0.0751 |  | 0.0921 |  |  |
| I86L | 0.14 |  | 0.17 | 0.0981 |  |  | 0.147 |  |  |  |  |  | 0.093 |  | 0.132 |  |  |  |  |
| P96I | 0.105 | 0.0702 | 0.0768 | 0.0789 | 0.0422 | 0.113 | 0.0938 |  | 0.0844 | 0.112 | 0.0892 | 0.12 | 0.1 | 0.0944 |  | 0.121 |  |  | 0.109 |
| F101R | 0.0323 |  |  | 0.0423 |  | 0.0503 |  | 0.0355 |  | 0.0499 | 0.0467 | 0.049 | 0.0489 | 0.0473 |  |  | 0.0327 |  |  |
| F101L | 0.0731 |  | 0.0905 | 0.0567 |  | 0.0825 | 0.105 |  | 0.0694 | 0.0972 |  | 0.113 | 0.0984 |  | 0.0773 | 0.0733 |  |  |  |
